# Test results published in PubChem BioAssay AID686979 (National Center for Advancing Translational Sciences (NCATS), 2013).
# The whole screen tested about 420,000 compounds, of which about 50,000 (12%) were called active. Inconclusive results, whose numbers are uncertain, are shown with a selection of clear calls. The call rests on the fitted dose curve; in most records, active means well fitted inhibition curve with a large enough effect; inconclusive means small, poorly fitted or top-dose-only effect; inactive means flat fitted curve, though single readings scatter. Potencies of inconclusive entries are left out as doubtful fits.
# Test: qHTS for Inhibitors of human tyrosyl-DNA phosphodiesterase 1 (TDP1): qHTS in cells in presence of CPT; further: nearly all actives have a fitted effect of over 55% in size
# Details: chicken DT40 Tdp1-/-;hTDP1 cells + 20 nM CPT, ATP luminescence, 48 h; activity change, negative = growth inhibition: at 46.2 µM (top of the series) unless noted
# In short: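 Chicken DT40 Tdp1-/- cells complemented with human TDP1, 400 cells/well, exposed to compounds plus 20 nM camptothecin for at least 48 h at 37 C; viability read as ATP content by CellTiter-Glo luminescence.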
# On the % scale 0 is the no-effect control and ±100 the full control effect; potency means the concentration at half of the fitted maximal effect; tags describe the fitted curve by direction and shape.
SMILES,Potency,"activity change, negative = growth inhibition"
CC[N+](CC)(CC)CCCCOc1ccc2c(c1)C(=O)c1cc(OCCCC[N+](CC)(CC)CC)ccc1-2,"inconclusive [inhibitor, single point]",
O=c1cc(-c2ccc(Cl)cc2)nc(N2CCN(c3ccccc3)CC2)[nH]1,"inconclusive [inhibitor, single point]",
COc1ccc(NC(=O)c2nn(C)c3c2CS(=O)(=O)c2ccccc2-3)cc1Cl,"inconclusive [inhibitor, full curve]",
COc1ccc([N+](=O)[O-])cc1NC(=O)CS(=O)(=O)c1ccc(C)cc1,,inconclusive: -21.7% [inhibitor]
CCc1ccc2nc(NC(=O)Cn3cnc4ccccc4c3=O)sc2c1,"inconclusive [inhibitor, partial curve]",
O=C(O)c1cc2c(cn1)[nH]c1ccccc12,,inactive: 2.11%
CC1=NN(Cc2ccccc2)C(=O)/C1=C\c1ccc(N(C)C)cc1,active: 13 µM,
CCc1nn(CC(=O)N2CCN(c3cccc(OC)c3)CC2)c(=O)c2cc3occc3n12,,inactive: -10.3%
CN(Cc1ccc(Cl)cc1)C(C(=O)NC1CCCCC1)c1cc2ccccc2o1 (stereo not drawn),,inactive: -107%
Cn1nnc2cc(NC(=O)Nc3ccccc3F)ccc21,"inconclusive [inhibitor, single point]",
CCOC(=O)c1c(C)[nH]c(C)c1S(=O)(=O)N1CCCC(C(=O)N2CCN(c3ccccc3F)CC2)C1 (stereo not drawn),"inconclusive [inhibitor, single point]",
CNc1nc(Cl)c(SC)c(NCc2ccc(F)cc2)n1,"inconclusive [inhibitor, single point]",
CC1CN(C(=O)CCC(=O)NCc2cccc(Cl)c2)c2ccccc2S1 (stereo not drawn),,inactive: -25.3%
CN1CCCC1CCNS(=O)(=O)c1ccc(Br)cc1 (stereo not drawn),"inconclusive [inhibitor, single point]",
OCC[C@@H]1C[C@H](O)[C@@H](O)[C@@]2(OCc3ccc(CO)cc32)O1,,inconclusive: -12.8% [inhibitor]
COCc1cc(C)nc2sc(C(=O)N3CCCC3)c(N)c12,,inactive: -16.4%
CN(C)CCOc1nc(-c2ccccc2)nc2c1oc1ccccc12,"inconclusive [inhibitor, single point]",
COc1cccc(C2NC(=S)NC3=C2CCc2ccccc23)c1 (stereo not drawn),"inconclusive [inhibitor, single point]",
COc1cc(/C=C/C(=O)c2ccc3c(c2)OCCO3)cc(OC)c1OC,"inconclusive [inhibitor, single point]",
CCN(CC(=O)Nc1ccccc1OC)C(=O)c1cccc(-n2cccc2)c1,,inactive: -16.8%
COc1ccccc1C1=NOC(C)(c2nnc(-c3cccc(Cl)c3)o2)C1 (stereo not drawn),"inconclusive [inhibitor, single point]",
CCCc1nn(-c2cc(Cl)ccc2OC)c2c1C(=O)CCC2,"inconclusive [inhibitor, partial curve, poor fit]",
CCOc1ccccc1NC(=S)NCCc1ccc(F)cc1,"inconclusive [inhibitor, single point]",
COc1ccc(S(=O)(=O)c2cnc3cc(OC)c(OC)cc3c2N2CCCC(C)C2)cc1 (stereo not drawn),"inconclusive [inhibitor, single point]",

SMILES,Potency,"activity change, negative = growth inhibition"
CSC(=NC#N)N1CCN(c2ccc(Cl)cc2)CC1,"inconclusive [inhibitor, single point]",
CSc1ncccc1C(=O)NCCc1ccccc1F,,inactive: 6.13%
CCc1ccc(CNC(=O)C2CCCN(c3nn4c(=O)cc(C)nc4s3)C2)cc1 (stereo not drawn),,inactive: -28%
COc1ccccc1C(=O)N(Cc1nc(-c2cccc(C)c2)no1)C(C)C,active: 20.6 µM,
Cc1cc(C)nc(NC(=O)c2cc3ccccc3o2)n1,,inactive: -13.5%
Cc1cccc(-n2c(CCc3ccccc3)nnc2SCC(=O)c2ccccc2)c1,active: 9.2 µM,
O=C(NCCCn1ccnc1)c1noc2c1CCCC2,,inactive: -20.2%
CCCNc1nc2ccccc2n2c(C)nnc12,"inconclusive [inhibitor, single point]",
CCOCCn1cnc2sc(C(=O)NCCCN3CCOCC3)c(C)c2c1=O,,inactive: 4.39%
COc1cc(CNC23CC4CC(CC(C4)C2)C3)ccc1OCc1ccccc1,active: 29.1 µM,
COc1ccc(/C=N/N2CCOCC2)cc1COc1ccc(F)cc1,"inconclusive [inhibitor, partial curve, poor fit]",
C1=Cc2ccccc2/C1=C\c1cccc(/C=C2\C=Cc3ccccc32)c1,"inconclusive [inhibitor, single point]",
CC(=O)Nc1sc2c(c1C(c1ccccc1Cl)N1CCN(CCO)CC1)CCCC2 (stereo not drawn),"inconclusive [inhibitor, single point]",
Cc1noc(C)c1S(=O)(=O)N(C)Cc1ccccc1,,inactive: -6.12%
Cc1ccc(/C=C/c2onc(C)c2S(=O)(=O)N2CCC(C(=O)N3CCN(c4cccc(C)c4)C(C)C3)CC2)cc1 (stereo not drawn),active: 20.6 µM,
Cc1ccc(C(=O)NCCN2C3=NC[C@H](Cc4ccc(O)cc4)N3C[C@H]2Cc2ccc(O)cc2)cc1Br,"inconclusive [inhibitor, single point]",
O[C@@H]1CN(CC2CCCCC2)[C@@H](c2ccccc2)C[C@H]1n1cc(C2CC2)nn1,"inconclusive [inhibitor, single point]",
CCCc1cc(=O)oc2cc(C)cc(O)c12,"inconclusive [inhibitor, single point]",
CCn1nc(C)cc1-c1nnc(SCC(=O)Nc2ccccc2)n1CCCOC,,inactive: -9.11%
CCOc1ccc(C2C(C(=O)Nc3ccccc3)=C(C)Nc3nc(SCc4cccc(OC)c4)nn32)cc1 (stereo not drawn),,inactive: -7.28%
O=C(NC1CCCc2ccccc21)C1CCN(S(=O)(=O)c2ccccc2)CC1 (stereo not drawn),"inconclusive [inhibitor, single point]",
O=C(O)CCC/C=C\C[C@@H]1C(/C=C/[C@@H](O)COc2cccc(C(F)(F)F)c2)[C@@H](O)C[C@@H]1O (stereo partly drawn),,inactive: 5% [at 4.12 µM]
COc1ccc(C)cc1NC(=O)CSCc1cc(=O)n2c(C)csc2n1,,inactive: 4.44%
O=C(Nc1ccc2nn(-c3ccc(F)cc3)nc2c1)c1cccnc1,"inconclusive [inhibitor, single point]",

SMILES,Potency,"activity change, negative = growth inhibition"
CC1(C(=O)NCc2ccccc2)CCC(=O)N1CC(F)(F)F (stereo not drawn),,inactive: -1.95%
O=S(=O)(NCCc1csc2nc(-c3ccccc3)nn12)c1cccs1,"inconclusive [inhibitor, single point]",
CC(C)C[C@@H](CN1CCCC1CN1C(=S)NC[C@@H]1Cc1ccccc1)N1C[C@H](Cc2ccccc2)N(CC2CCCCCC2)C1=S (stereo partly drawn),active: 10.3 µM,
Cc1cc(N2CCOCC2)nc2ccc(NC(=O)C3CCC(C)CC3)cc12 (stereo not drawn),"inconclusive [inhibitor, single point]",
Cc1cccc(NC(=O)CN(CC2CCCO2)C(=O)c2cc3ccccc3o2)c1C (stereo not drawn),"inconclusive [inhibitor, single point]",
CC(C)CCOc1ccc(C2N=C(N)Nc3nc4ccccc4n32)cc1 (stereo not drawn),"inconclusive [inhibitor, single point]",
Cc1nn(C(C)C(=O)NC2CCC(C)CC2)c(=O)c2c1sc1ccccc12 (stereo not drawn),"inconclusive [inhibitor, single point]",
Cc1cc(O)c(N)c(C)c1Cl,"inconclusive [inhibitor, single point]",
CCc1ccc(C2C3=C(CC(C)(C)CC3=O)OC3=C2C(=O)CC(C)(C)C3)cc1,"inconclusive [inhibitor, single point]",
Cc1ccc(CN(CC(=O)N/N=C/c2ccccc2[N+](=O)[O-])S(=O)(=O)c2ccc(C)cc2)cc1,"inconclusive [inhibitor, single point]",
Cc1ccc(S(=O)(=O)N2CCN(C)CC2)c(C)c1,,inactive: -3.26%
O=C(COc1cccc(NC(=O)c2ccccc2)c1)c1ccc(F)cc1,"inconclusive [inhibitor, single point]",
Cc1ccc(NC(=O)C2(C)CCN2C(=O)C2(c3ccc(Cl)cc3)CC2)cc1 (stereo not drawn),active: 14.6 µM,
O=S(c1cc(Cl)cc(Cl)c1O)c1cc(Cl)cc(Cl)c1O,inactive,
Cc1ccccc1Cn1cnc2c(NS(C)(=O)=O)c(C)c(C)cc21,"inconclusive [inhibitor, single point]",
O=C(COc1ccccc1Cl)Nc1nnc(S(=O)(=O)N2CCCC2)s1,"inconclusive [inhibitor, single point]",inconclusive: -30.4% [inhibitor]
CCCCN(CC)C(=O)CSc1nc2n[nH]c(C)c2c(=N)n1-c1cccc(C)c1,active: 7.31 µM,
CSc1cccc(NC(=O)c2nnn(Cc3ccccc3)c2N)c1,"inconclusive [inhibitor, single point]",
COc1cccc(-c2cc(C(=O)Nn3cnnc3)c3ccccc3n2)c1,,inactive: -14.1%
CCOc1ccccc1NC(=O)C(CC(C)C)NC(=O)C1CCC(C)CC1 (stereo not drawn),active: 18.4 µM,
Cc1cnccn1,"inconclusive [inhibitor, full curve]",
CCN1CC2([N+](=O)[O-])C=CC(=O)C([N+](=O)[O-])(C1)C2CC(=O)c1ccccc1 (stereo not drawn),"inconclusive [inhibitor, single point]",
CCCCN(C)Cc1c(C(=O)N2CCc3ccccc3C2)nc2ccc(Cl)cn12,,inactive: -27.6%
COc1cccc2sc(NC(=O)CS(=O)(=O)c3ccc(C)cc3)nc12,,inactive: 1.29%
